Test results published in the supplement of paper PMC10441789.
The other results are listed elsewhere or left out. Antibody binding of pooled human sera (four to six donors per pool; dilution not stated) to peptides of the Trypanosoma cruzi antigen TSSA on microarrays. Quantile-normalised fluorescence in arbitrary units, mean of duplicate arrays; higher = more binding. No active / inactive call. The uninfected pools are read here as the healthy donors of the same country. The strongest signals lie near the top of the scale (about 60,000).

How the values were obtained:
Test in all cases: antibody binding signal (normalised fluorescence) (arbitrary fluorescence units); higher = stronger serum antibody binding to peptide
[1] = system: pooled sera of chronic Chagas disease patients, Argentina
Method: (§1)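 Microarray of 15-residue peptides over residues 30-55 of Trypanosoma cruzi TSSAII, each with 1 to 10 substitutions at naturally variable positions, probed with one serum pool per country.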

[2] = system: pooled sera of chronic Chagas disease patients, Bolivia
Method: as §1

[3] = system: pooled sera of chronic Chagas disease patients, Brazil
Method: as §1

[4] = system: pooled sera of chronic Chagas disease patients, Colombia
Method: as §1

[5] = system: pooled sera of chronic Chagas disease patients, Mexico
Method: as §1

[6] = system: pooled sera of chronic Chagas disease patients, USA
Method: as §1

[7] = system: pooled sera of uninfected people, Argentina
Method: as §1

[8] = system: pooled sera of uninfected people, Bolivia
Method: as §1

[9] = system: pooled sera of uninfected people, Brazil
Method: as §1

[10] = system: pooled sera of uninfected people, Colombia
Method: as §1

[11] = system: pooled sera of uninfected people, Mexico
Method: as §1

[12] = system: pooled sera of uninfected people, USA
Method: as §1

| Sequence | antibody binding signal [1] | antibody binding signal [2] | antibody binding signal [3] | antibody binding signal [4] | antibody binding signal [5] | antibody binding signal [6] | antibody binding signal [7] | antibody binding signal [8] | antibody binding signal [9] | antibody binding signal [10] | antibody binding signal [11] | antibody binding signal [12] |
| --- | --- | --- | --- | --- | --- | --- | --- | --- | --- | --- | --- | --- |
| DKKPAAGEAPSPSGA | 526 | 193 | 12700 | 206 | 249 | 16200 | 130 | 151 | 173 | 105 | 95.3 | 154 |
| DNKAATGGTPSQPGA | 501 | 1110 | 7130 | 1100 | 411 | 362 | 451 | 182 | 706 | 371 | 1110 | 137 |
| NKPAAGEAPSQSGAS | 1230 | 25000 | 36000 | 298 | 256 | 17300 | 394 | 851 | 631 | 278 | 284 | 959 |
| STPPSGKDKKAATGE | 25000 | 1190 | 4630 | 284 | 45700 | 1780 | 458 | 464 | 111 | 268 | 103 | 111 |
| SGTEKKTATGEAPSQ | 14900 | 26300 | 15800 | 532 | 634 | 20800 | 212 | 434 | 323 | 113 | 138 | 110 |
| KEKKPAAGGTPSPSG | 168 | 160 | 144 | 1380 | 182 | 416 | 105 | 85.3 | 521 | 108 | 79.1 | 305 |
| SGKEKKAAAGEAPSP | 3120 | 472 | 4710 | 2550 | 6040 | 10500 | 247 | 93 | 95.8 | 104 | 88.3 | 85.5 |
| PPSGTDNKPATGEAP | 46600 | 46700 | 49700 | 6070 | 4620 | 40700 | 1860 | 848 | 598 | 512 | 759 | 404 |
| GKEKKAAAGEAPSQP | 5970 | 2120 | 26600 | 4810 | 6230 | 10300 | 99.7 | 98 | 101 | 93.5 | 67 | 95.5 |
| KENKPATGEAPSPPG | 45100 | 38800 | 48100 | 311 | 603 | 37300 | 926 | 744 | 301 | 232 | 240 | 165 |
| GKDKKAATGEAPSQP | 12600 | 4220 | 32100 | 1290 | 1570 | 18700 | 219 | 85.8 | 117 | 159 | 72.8 | 92.7 |
| TEKKTATGEAPSQSG | 12500 | 26100 | 18300 | 362 | 967 | 20600 | 277 | 195 | 272 | 104 | 264 | 174 |
| KTAAGEAPSQSGASS | 377 | 17200 | 9760 | 161 | 769 | 2950 | 340 | 558 | 297 | 172 | 169 | 196 |
| GKEKKPATGETPSQP | 24900 | 3600 | 32400 | 6470 | 9860 | 20200 | 245 | 170 | 124 | 125 | 506 | 304 |
| SGTDKKPATGEAPSQ | 47400 | 45400 | 49700 | 4550 | 353 | 41400 | 768 | 596 | 306 | 438 | 2840 | 208 |
| DNKPAAGETPSPSGA | 202 | 295 | 14100 | 364 | 209 | 4060 | 131 | 305 | 314 | 219 | 274 | 422 |
| ENKPAAGETPSQPGA | 1850 | 5800 | 41500 | 342 | 319 | 5310 | 168 | 1300 | 249 | 346 | 207 | 193 |
| KDNKPAAGEAPSQPG | 7640 | 10900 | 37100 | 313 | 196 | 16000 | 332 | 434 | 146 | 190 | 319 | 77.3 |
| GKDNKTAAGEAPSPS | 1640 | 261 | 1040 | 3670 | 2380 | 5960 | 300 | 220 | 129 | 193 | 91.3 | 139 |
| SGTEKKAAAGGAPSP | 1130 | 253 | 1310 | 9680 | 2570 | 2330 | 251 | 566 | 242 | 189 | 143 | 152 |
